# Test results taken from article PMC6919601, “Identification of Plasmodium dipeptidyl aminopeptidase allosteric inhibitors by high throughput screening” (PLoS ONE, 2019).
# Among all 110,000 compounds or so, about 230 (0.21%) showed an effect of 50% or more. The list shows a part of the results.
# Target: DPAP1 (Plasmodium falciparum, UniProt Q8IIJ9)
# Test: primary screen, percent inhibition; read by cleavage of a fluorogenic dipeptide substrate; higher = more effect of the substance
# Design: species or system P. falciparum D10 trophozoite lysates; single well
# 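Also: 30 min substrate incubation versus DMSO and 10 µM JCP410 controls.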
# Chain of DPAP1 (Q8IIJ9 whole entry, looked up): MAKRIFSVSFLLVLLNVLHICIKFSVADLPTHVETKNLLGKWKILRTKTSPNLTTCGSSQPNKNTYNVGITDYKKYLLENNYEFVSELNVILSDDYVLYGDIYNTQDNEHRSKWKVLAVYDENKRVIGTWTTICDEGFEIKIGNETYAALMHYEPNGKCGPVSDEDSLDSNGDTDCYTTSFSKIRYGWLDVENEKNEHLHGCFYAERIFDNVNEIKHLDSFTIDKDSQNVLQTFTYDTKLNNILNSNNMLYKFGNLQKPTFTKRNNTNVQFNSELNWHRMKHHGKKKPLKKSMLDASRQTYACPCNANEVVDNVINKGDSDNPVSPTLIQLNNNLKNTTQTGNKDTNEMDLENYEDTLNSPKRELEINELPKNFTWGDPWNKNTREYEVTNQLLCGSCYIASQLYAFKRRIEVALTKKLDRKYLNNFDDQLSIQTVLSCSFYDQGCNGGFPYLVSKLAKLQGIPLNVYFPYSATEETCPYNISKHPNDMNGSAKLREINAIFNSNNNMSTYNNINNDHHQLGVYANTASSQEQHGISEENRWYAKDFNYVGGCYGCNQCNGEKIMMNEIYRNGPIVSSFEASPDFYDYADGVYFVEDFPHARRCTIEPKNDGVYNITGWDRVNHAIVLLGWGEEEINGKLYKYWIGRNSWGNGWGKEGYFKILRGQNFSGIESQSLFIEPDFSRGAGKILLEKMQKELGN
row,Structure (SMILES),% Inhibition @ 10 uM
1,O=c1oc2ccccc2c(O)c1/C=N/c1ccccn1,7.75%
2,CC(CNC(=O)c1ccc2c(c1)OCO2)NC(=O)c1ccc2c(c1)OCO2 (stereo not shown),-5.6%
3,CC1CC(C)CN(C(=O)c2cc3c(=O)oc4ccccc4c3s2)C1 (stereo not shown),3.54%
4,Cc1cc(C(=O)CN2CCN(C)CC2)c(C)n1-c1ccc(-c2ccccc2)cc1,-3.04%
5,Cc1sc(NC(=O)c2ccc(Br)o2)c(C(N)=O)c1C,9.37%
6,CCCC[C@H](NC(=O)C(Cc1c(F)cccc1F)NC(=O)c1ccc(-c2ccccc2Cl)cc1)C(=O)c1nnc(-c2ccncc2)o1 (stereo partly shown),4.33%
7,O=C(NC1CCCCCC1)C1c2ccccc2C(=O)N1Cc1ccccc1 (stereo not shown),1.16%
8,COc1ccc(S(=O)(=O)NCc2ccc(C(=O)NCCc3ccc(Cl)cc3)cc2)cc1,-9.18%
9,OC1CCN(Cc2c[nH]c3ccccc23)CC1,1.48%
10,Cc1c2cnn(CC(=O)NCCCN3CCOCC3)c(=O)c2c(C)n1Cc1ccc(F)cc1,-5.81%
11,Cc1ccc(NC(=O)CCN2C(=O)c3ccccc3C2=O)c(Br)c1,6.24%
12,COc1cccc(C2C3CC(C(C)(C)C)CC=C3C(C#N)=C(N)C2(C#N)C#N)c1O (stereo not shown),2.8%
13,O=C(CCc1ccccc1)n1nc(-c2ccco2)nc1NCc1ccc(Cl)cc1,0.248%
14,CCOc1ccc(OCC)c(C2C(C#N)=C(N)Oc3c2c(C)nn3-c2ccccc2)c1 (stereo not shown),1.02%
15,CCOCCCNC(=O)/C(C#N)=C/c1c(Oc2cccc(C)c2)nc2ccccn2c1=O,4.06%
16,O=C(Nc1ccc(F)cc1)C1CCC(N2C(=O)c3ccccc3C2=O)CC1 (stereo not shown),-2.92%
17,Cc1nc(-n2nnc3cc(C)c(C)cc32)c2c3c(sc2n1)CCC3,0.147%
18,CCOc1ccccc1C(=O)Nc1nc(-c2ccccc2)c(C)s1,-1.12%
19,N#CCNC(=O)[C@H](CSCc1ccccc1)NC(=O)c1cccc(O)c1,-0.214%
20,O=C(O)Cc1sc(Nc2ccccn2)nc1-c1ccccc1,-2.91%
21,COc1cc(C2C(C#N)=C(N)Oc3c2c(C)nn3-c2ccccc2)cc(OC)c1O (stereo not shown),5.48%
22,O=C(Nc1ccccc1C(F)(F)F)c1cccc(Cl)c1,-5.2%
23,COc1ccc(-c2nc(CS(=O)CC(=O)N3CCOCC3)c(C)o2)cc1 (stereo not shown),2.37%
24,Fc1cccc(Cl)c1CN1CCN(c2ncccn2)CC1,-4.95%
25,COC(=O)c1cc2oc(C)cc2n1CC(=O)N1CC(C)CC(C)C1 (stereo not shown),-6.59%

row,Structure (SMILES),% Inhibition @ 10 uM
1,CC1CN(Cc2nc3c(c(=O)n(C)c(=O)n3C)n2Cc2c(F)cccc2Cl)CC(C)O1 (stereo not shown),-0.719%
2,COc1cc(-c2nc(O)c3c4c(sc3n2)CCCCCC4)ccc1OCC#N,-11.2%
3,COc1ccc(C(=O)/C=C/c2ccc(SC)cc2)c(OC)c1,0.912%
4,CC1=C(c2ccc(C)cc2)S(=O)(=O)N=C1N1CCN(c2ccccn2)CC1,2.27%
5,COc1ccc(CC(=O)Nc2c(-c3ccccc3)nc3cc(C)ccn23)cc1OC,-5%
6,CSc1ncc(C(=O)NCCCc2ccccc2)c(C)n1,-2.3%
7,CC(O)CNC(=O)C12CC3CC(CC(C3)C1)C2 (stereo not shown),-3.46%
8,CCOC(=O)N1CCN(C(=O)CSc2nc3c(c(=O)n2Cc2ccccc2)SCC3)CC1,-3.43%
9,C=C(C)c1cccc(C(C)(C)NC(=O)NC2CN3CCC2CC3)c1 (stereo not shown),1.03%
10,CN(C)S(=O)(=O)c1ccc2c(c1)C(N1CCN(CCO)CC1)Cc1ccc(F)cc1S2 (stereo not shown),-11.2%
11,CCCCCC(=O)Nc1ncc2c(n1)CC(c1ccco1)CC2=O (stereo not shown),0.673%
12,CCOC(=O)c1cc2c(=O)n3ccccc3nc2n(C(C)C)/c1=N\C(=O)CCc1ccccc1,4.37%
13,COc1ccc(C(C(=O)NC2CCCCC2)N2CCC3(CC2)OCCO3)cc1 (stereo not shown),2.06%
14,COc1ccc2nc3oc(C(=O)NC4CCCc5ccccc54)cc3cc2c1 (stereo not shown),0.208%
15,CCOc1cc(Br)cc(C(c2c(C)n(C)n(-c3ccccc3)c2=O)c2c(C)n(C)n(-c3ccccc3)c2=O)c1O,1.04%
16,O=C(Cc1cccs1)NCCc1ccccc1,0.219%
17,O=c1cccc2n1C[C@H]1C[C@@H]2CN(Cc2ccccc2)C1,-0.13%
18,COc1ccccc1-c1cc(/N=C(/NCc2ccco2)SC)[nH]n1,2.73%
19,O=C(CSCC(=O)Nc1ccc2ccccc2c1)NCC1CCCO1 (stereo not shown),-0.725%
20,COc1cc(-c2[nH]nc3c2C(c2c(F)cccc2Cl)C(C#N)=C(N)O3)cc(OC)c1OC (stereo not shown),0.851%
21,CN(CCCNC(=O)CCn1cnc2onc(-c3ccc(F)cc3)c2c1=O)Cc1ccccc1,-2.15%
22,CN(C)/C=C1/Sc2ccccc2C1=O,-2.9%
23,O=C(CNC(=S)N(Cc1cccs1)C1CCCCC1)NCc1ccc(F)cc1,1.27%
24,CCCOc1ccccc1C(=O)Nc1nonc1-c1ccc(OCC)c(OCC)c1,3.51%
